From PMC4346921, “Identification of the Specific Interactors of the Human Lariat RNA Debranching Enzyme 1 Protein” (International Journal of Molecular Sciences, 2015)
These are yes or no findings as the source states them, for the method shown. In cells and extracts the contact can be indirect. Some results given as binding are weak or reduced against the parent protein; the word gives no strength. Tags and fused reporters may be left off the sequences shown.

Columns and labels:
[1] = target: T1, Flag-Xab2 (xeroderma pigmentosum, complementeation group A (XPA)-binding protein 2), expressed in HEK293T (UniProt Q9HCS7); experiment: co-IP; Flag-tagged protein precipitated with anti-Flag M2 agarose from whole-cell extract of transfected HEK293T cells (buffer E: 20 mM Tris-HCl pH 8.0, 100 mM KCl, 0.2 mM EDTA, 0.2 mM PMSF; 60 min, 4 °C; five washes); Western blotting of the precipitates
T1 sequence: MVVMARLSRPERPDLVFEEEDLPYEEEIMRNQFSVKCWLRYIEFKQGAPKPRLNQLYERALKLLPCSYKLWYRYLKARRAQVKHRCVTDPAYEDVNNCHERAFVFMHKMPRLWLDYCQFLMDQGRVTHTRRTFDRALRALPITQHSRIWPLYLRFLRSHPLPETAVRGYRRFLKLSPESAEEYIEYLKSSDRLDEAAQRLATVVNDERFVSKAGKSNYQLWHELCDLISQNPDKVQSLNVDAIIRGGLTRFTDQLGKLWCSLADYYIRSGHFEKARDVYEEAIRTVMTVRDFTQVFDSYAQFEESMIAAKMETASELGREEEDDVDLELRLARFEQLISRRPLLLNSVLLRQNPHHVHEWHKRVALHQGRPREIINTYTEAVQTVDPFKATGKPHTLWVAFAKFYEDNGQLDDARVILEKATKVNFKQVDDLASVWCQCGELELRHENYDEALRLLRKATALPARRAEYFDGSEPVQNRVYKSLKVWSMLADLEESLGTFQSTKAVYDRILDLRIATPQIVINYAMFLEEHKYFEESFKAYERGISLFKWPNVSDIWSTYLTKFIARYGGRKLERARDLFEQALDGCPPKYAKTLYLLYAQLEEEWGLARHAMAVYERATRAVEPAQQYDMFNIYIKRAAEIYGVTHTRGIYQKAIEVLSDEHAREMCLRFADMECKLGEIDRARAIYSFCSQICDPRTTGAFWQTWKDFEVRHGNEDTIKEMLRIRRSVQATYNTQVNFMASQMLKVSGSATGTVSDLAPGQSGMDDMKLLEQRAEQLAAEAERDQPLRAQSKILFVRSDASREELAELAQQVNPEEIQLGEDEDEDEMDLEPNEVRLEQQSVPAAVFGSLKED

Flag-hDrn1 (human) = target: T2, Flag-hDrn1 (human) (UniProt Q69YN2); experiment: as above
T2 sequence: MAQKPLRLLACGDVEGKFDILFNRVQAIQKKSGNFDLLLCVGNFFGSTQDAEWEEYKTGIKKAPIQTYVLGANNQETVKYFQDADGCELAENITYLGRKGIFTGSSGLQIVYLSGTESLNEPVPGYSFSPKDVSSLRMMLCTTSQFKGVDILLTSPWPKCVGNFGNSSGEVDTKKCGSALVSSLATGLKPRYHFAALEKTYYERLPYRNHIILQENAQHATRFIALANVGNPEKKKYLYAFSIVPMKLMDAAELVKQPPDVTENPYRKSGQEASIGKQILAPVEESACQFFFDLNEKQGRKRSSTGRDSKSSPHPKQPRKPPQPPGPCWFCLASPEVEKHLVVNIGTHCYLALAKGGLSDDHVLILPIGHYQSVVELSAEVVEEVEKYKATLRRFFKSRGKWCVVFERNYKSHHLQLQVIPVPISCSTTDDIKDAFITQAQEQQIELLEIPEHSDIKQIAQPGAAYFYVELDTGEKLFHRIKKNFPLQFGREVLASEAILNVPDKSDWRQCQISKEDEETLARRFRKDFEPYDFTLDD

[2] = target: T3, Flag-hPrp19, expressed in HEK293T (human), Q9UMS4; experiment: as above; settings: remark: other sources report otherwise
T3 chain: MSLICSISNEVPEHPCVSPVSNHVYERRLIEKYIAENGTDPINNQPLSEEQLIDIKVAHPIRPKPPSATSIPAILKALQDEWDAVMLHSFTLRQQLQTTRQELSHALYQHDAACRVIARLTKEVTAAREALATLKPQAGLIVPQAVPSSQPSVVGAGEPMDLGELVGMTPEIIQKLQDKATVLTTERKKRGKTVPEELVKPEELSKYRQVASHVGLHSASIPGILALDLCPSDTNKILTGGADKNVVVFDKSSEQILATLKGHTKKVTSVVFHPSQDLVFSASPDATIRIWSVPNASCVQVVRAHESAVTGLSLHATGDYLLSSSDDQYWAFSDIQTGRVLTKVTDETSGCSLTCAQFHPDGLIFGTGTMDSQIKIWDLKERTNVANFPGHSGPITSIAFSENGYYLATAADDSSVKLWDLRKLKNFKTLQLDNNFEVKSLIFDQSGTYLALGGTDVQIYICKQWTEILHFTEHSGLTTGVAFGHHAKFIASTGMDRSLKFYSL

[3] = target: T4, Flag-IBP160, expressed in HEK293T, O60306; experiment: as above; settings: remark: other sources report otherwise
T4 chain: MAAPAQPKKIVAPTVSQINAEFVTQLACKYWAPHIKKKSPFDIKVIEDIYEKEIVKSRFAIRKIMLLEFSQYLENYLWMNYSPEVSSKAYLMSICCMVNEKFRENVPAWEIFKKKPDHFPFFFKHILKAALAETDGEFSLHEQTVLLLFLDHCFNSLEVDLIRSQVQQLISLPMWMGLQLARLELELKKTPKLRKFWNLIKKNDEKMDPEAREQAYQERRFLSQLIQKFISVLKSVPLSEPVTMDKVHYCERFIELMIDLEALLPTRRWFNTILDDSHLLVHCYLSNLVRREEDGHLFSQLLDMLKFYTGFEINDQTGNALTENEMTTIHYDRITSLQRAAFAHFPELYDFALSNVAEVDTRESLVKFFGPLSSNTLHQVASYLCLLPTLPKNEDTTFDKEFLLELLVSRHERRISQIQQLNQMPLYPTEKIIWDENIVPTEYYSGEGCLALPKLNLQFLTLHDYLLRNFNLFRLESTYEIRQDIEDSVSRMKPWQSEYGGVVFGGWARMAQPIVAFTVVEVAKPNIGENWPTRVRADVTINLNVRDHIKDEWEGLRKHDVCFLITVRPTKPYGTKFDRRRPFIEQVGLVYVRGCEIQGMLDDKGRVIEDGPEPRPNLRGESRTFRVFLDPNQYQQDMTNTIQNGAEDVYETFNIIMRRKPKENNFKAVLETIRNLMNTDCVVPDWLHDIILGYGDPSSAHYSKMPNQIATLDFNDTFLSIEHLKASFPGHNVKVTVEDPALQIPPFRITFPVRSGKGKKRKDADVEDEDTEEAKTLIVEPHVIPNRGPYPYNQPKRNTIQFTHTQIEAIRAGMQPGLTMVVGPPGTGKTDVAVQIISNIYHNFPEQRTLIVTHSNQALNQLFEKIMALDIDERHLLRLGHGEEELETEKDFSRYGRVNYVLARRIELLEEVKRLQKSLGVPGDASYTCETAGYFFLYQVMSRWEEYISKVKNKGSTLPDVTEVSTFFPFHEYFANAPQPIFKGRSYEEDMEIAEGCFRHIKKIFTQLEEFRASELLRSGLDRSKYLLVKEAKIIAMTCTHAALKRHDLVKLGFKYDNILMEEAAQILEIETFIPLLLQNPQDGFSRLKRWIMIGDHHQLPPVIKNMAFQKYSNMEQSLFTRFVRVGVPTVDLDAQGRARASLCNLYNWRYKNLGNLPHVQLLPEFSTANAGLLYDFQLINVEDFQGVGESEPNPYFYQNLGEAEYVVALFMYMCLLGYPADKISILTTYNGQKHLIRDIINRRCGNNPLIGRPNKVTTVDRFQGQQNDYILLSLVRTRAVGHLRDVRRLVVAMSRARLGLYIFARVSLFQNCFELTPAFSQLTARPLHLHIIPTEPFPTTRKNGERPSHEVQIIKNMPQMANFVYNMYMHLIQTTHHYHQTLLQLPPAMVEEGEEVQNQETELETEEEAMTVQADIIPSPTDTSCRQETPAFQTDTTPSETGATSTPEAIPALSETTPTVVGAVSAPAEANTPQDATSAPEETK

[4] = target: T5, GST-hDbr1 (human), Q9UK59; experiment: pull-down; 5 μg GST or GST fusion protein immobilised on glutathione beads; [35S]methionine-labelled in vitro translated protein added in 50 mM Tris-HCl pH 7.4, 200 mM NaCl, 2 mM EDTA, 0.1% NP-40, 4 °C, 1 h; five washes; SDS-PAGE and fluorography; only the target purified; settings: remark: other sources report otherwise
T5 chain: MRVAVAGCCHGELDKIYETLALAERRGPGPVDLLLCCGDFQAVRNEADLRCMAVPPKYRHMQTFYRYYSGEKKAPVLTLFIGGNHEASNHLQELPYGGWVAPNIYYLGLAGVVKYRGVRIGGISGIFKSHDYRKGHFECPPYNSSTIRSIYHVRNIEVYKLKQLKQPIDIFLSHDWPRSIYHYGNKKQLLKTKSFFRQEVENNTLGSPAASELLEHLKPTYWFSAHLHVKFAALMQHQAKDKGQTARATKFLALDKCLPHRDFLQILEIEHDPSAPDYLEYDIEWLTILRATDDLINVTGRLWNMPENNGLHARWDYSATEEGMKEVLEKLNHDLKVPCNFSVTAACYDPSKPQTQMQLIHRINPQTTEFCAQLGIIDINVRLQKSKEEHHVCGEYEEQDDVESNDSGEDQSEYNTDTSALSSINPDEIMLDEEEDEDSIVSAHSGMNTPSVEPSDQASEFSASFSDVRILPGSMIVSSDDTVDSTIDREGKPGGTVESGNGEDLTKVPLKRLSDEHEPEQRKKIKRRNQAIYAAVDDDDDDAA

B1: human Debranching enzyme 1 (hDbr1), endogenous (protein, UniProt Q9UK59-1 1-544)
chain: T5 chain
binding [1]: binds weakly | binding (Flag-hDrn1 (human)): binds

B2: human Debranching enzyme 1 (hDbr1), endogenous, Q9UK59-1 1-544 (protein)
chain: T5 chain
binding [2]: no binding | binding [3]: no binding

B3: Flag-tagged hPrp19, in vitro translated, Q9UMS4 1-504 (protein)
chain: T3 chain
binding [4]: no binding
